# Source: the supplement of paper PMC11417369
# ± gives the standard deviation of the averaged measurements. Some of the results follow.
# Test system: PfAP2-G AP2 domain (GST-tagged)
# Assay: gcPBM binding intensity (ln(normalized median fluorescence intensity)); higher = stronger DNA binding
# In short: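 Using an Agilent 4 × 180k array, primer-extended double-stranded 36-bp intergenic genomic probes and negative controls were exposed for 1 h to GST-fused P. falciparum DNA-binding domains expressed in E. coli. Binding was carried out in 1× PBS with 1% milk, 0.2 mg/ml BSA, 0.5% salmon testes DNA and 0.03% Triton X-100, and protein was detected with Alexa488 anti-GST antibody and a 488 nm scan. Binding intensity is the highest Masliner-normalised natural-log median intensity across replicate spots of either probe orientation.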
row,Sequence,gcPBM binding intensity (ln)
1,AAAAAATTCCTATATACACACACGCACATATTTATA [CACACA_site6192],10.2 ± 0.15
2,ATATAATAAATATATTGTACATATGAATCTACTAAA [XGTACX_site7610],10.8 ± 0.52
3,TAAAAAATGATAGAAGTGCATAAAATAATATATATA [GTGCAC_site9904],10.03 ± 0.078
4,TATAATTTTTTTAATACACACAAATATTTATATATA [CACACA_site3042],9.94 ± 0.2
5,AATTAATGTTTTGTCACACAGTATGATTATATATAT [CACACA_site6143],10.1 ± 0.12
6,TATATATACATATACGCATGTAAATTCAAAAGTAAA [TGCATGCA_site956],9.96 ± 0.19
7,AAGAGAAATGGGCACACACACACATATTATATATAT [CACACA_site1531],10.7 ± 0.45
8,AAAAAGAATATAAGTAGTACAGTGCATATAATAATT [XGTACX_site617],11.6 ± 0.96
9,TTTTACTCTTAAAATAATAAAAAATATTCACATTTA [CACACA_negctrl_site1508],9.63 ± 0.085
10,TTAAATAATTTTTAATGTACATTAAATTTATTATTA [XGTACX_site261],11.2 ± 0.95
11,TACACATTATGTATCATACACACAAATAAATATATA [CACACA_site608],10.1 ± 0.2
12,TTAGTATATTTTTCCTGTACGTACTCAGATACAAAT [XGTACX_site7397],11.7 ± 0.91
13,AATAATAACAAATGAACACACATATATATGAGCAAA [CACACA_site2121],9.89 ± 0.057
14,TTGATATAAAAAGAAAGTACTTTATAGATGTTTATT [XGTACX_site8144],11.1 ± 0.57
15,TATAAAAATATATATATATATATATATATATATATA [TGCATGCA_negctrl_site541],9.82 ± 0.73
16,GCATCATTTATTTGCACACCTATTATATACTTTTTA [CACACA_site2098],10.09 ± 0.064
17,TACATAAACTTTATAACACACACTTATATATATATA [CACACA_site1106],10 ± 0.2
18,TATATAAAGATATATACACACAAAAAAAAAAAAAAA [CACACA_site6778],9.7 ± 0.41
19,TTCTCCATCAGATACTGTACATAATATATATAATAT [XGTACX_site8827],11 ± 0.76
20,TGTATAACCTGTGTTACACACATTAGAATTTATATA [CACACA_site6393],9.905 ± 0.092
21,AATGTATTATGTAATAGTACGTATAATATCTTATTT [XGTACX_site3],11.1 ± 0.68
22,ATACATATCTATAATACACACATAAATGTAACATTT [CACACA_site7621],10.095 ± 0.007

row,Sequence,gcPBM binding intensity (ln)
1,TTCTACGTTTTAAAAAAAAAAAAAAAAAAAAAAAAA [XGTACX_negctrl_site6],9.64 ± 0.33
2,CATAAAAATGAACATACACACATATATTTATTTATA [CACACA_site7222],9.785 ± 0.021
3,TGAAGATAAAAATATGCACACATATATATATATATA [CACACA_site8027],10.1 ± 0.42
4,ATAGAAATCTATTGTGATTATTATTTTATTTTTAGT [XGTACX_negctrl_site605],9.715 ± 0.049
5,ACATATTATAGGAATACACACAAAAACTTATCGGTA [CACACA_site7587],10.2 ± 0.078
6,ATTATATATATTGGAGTGCATATATAGTATTTTATA,10.1 ± 0.17
7,ATTATATCACTGTGTTGTACTTCTTATATAAAAATA [XGTACX_site2333],11.4 ± 1
8,ACATATCGGGTGCATTAACACACATTTATTTGAATA [CACACA_site8736],10.3 ± 0.33
9,TCCGTATAATTTTGCACACGAATATAAATTTGATAA [CACACA_site136],10.1 ± 0.25
10,TATATATTCATGTGTACACACAAAAAAAAATAAAGT [CACACA_site2207],11.7 ± 0.9
11,ATAAGCGAATATATATCACACACAAAAAAATCAGAC [CACACA_site8657],10.2 ± 0.17
12,TTTTTTTTTGATATTTGTACTTAAGTAAATATTATA [XGTACX_site3843],11 ± 0.59
13,ATAAAAATAAAATGGACACACATATATACATATTTG [CACACA_site3277],10.8 ± 0.58
14,AATTATAATAAATAACGTACAAAAAATAAATTATTT [XGTACX_site3627],11 ± 0.4
15,AAAAAGGAAATTTACACACACATATAACATACATTA [CACACA_site7534],9.84 ± 0.19
16,ATATTACACAGATATGCACACATTGTAGTTATTTAT [CACACA_site5454],10.04 ± 0.064
17,TCATATTTACAAAAAGGTATTAATAAATAAAATATT [CACACA_negctrl_site259],9.795 ± 0.021
18,AATAAGTGTTGATTCTTAAAATGACCATATAATAAT [TGCATGCA_negctrl_site221],10.8 ± 0.56
19,GCTATCATATCATGTTGTACACAACCTCAAAATGAA [XGTACX_site8757],11.4 ± 0.96
20,TATCTTTTATAAGTGACACACATAAATATTTAAATT [CACACA_site833],10.3 ± 0.33
21,ATATTAGGGTCATGAACACACAAAAAAAAAAAAAAA [CACACA_site937],10.4 ± 0.54
22,AATCGATAACAATGTAGTACCAGAAAAATAAATATT [XGTACX_site8501],11.3 ± 0.69

row,Sequence,gcPBM binding intensity (ln)
1,TATATATATATATATGCATGCCATATGATATATATA [TGCATGCA_site109],10.1 ± 0.67
2,CGTTTATTAAACTTGACACACACACCCCCACATATA [CACACA_site8151],11.1 ± 0.69
3,GATTATTATTATAAGGGTACAAATATTTAATAAAAA [XGTACX_site7144],11 ± 0.57
4,ATCCTCTTTTTAAGTTGTACAGGGTCGAAAAAAAAA [XGTACX_site6852],11.5 ± 0.89
5,CATGTCAAAATTATACGTACATATATAAGTTCCATT [XGTACX_site6331],11.6 ± 0.8
6,AAAAAAAAATAAAAAAGTACATTCATTTTATAAGAT [XGTACX_site3507],11.4 ± 1
7,ATAAATACAGATATTACACACTTCTTATTCTAAGAA [CACACA_site5640],9.89 ± 0.071
8,TATTTTATATAAAGGTGTACTTATACAAAAATATAT [XGTACX_site7435],11.5 ± 0.88
9,TATACAGGAATATTTTTACACACTAATAATTATAAA [CACACA_site8477],9.95 ± 0.13
10,TATTTACAACAAATTTAATTATTTTTAACTTATAAA [GTGCAC_negctrl_site259],9.44 ± 0.21
11,AGATAGCTATTAAAAAGTACAAAAAAATATATATAT [XGTACX_site6289],11.1 ± 0.75
12,GGTTTGAATTTTTAAGTGCATATAACATAAATGAAA,10.1 ± 0.3
13,CATACATACAAACACACACACATATATATATATATA [CACACA_site43],9.96 ± 0.23
14,TTATATTATATATATATTATATATATGTATGCATAA [TGCATGCA_negctrl_site481],9.72 ± 0.15
15,AAATATTTGTGTGGTTGTACTATAATGATAAAAATA [XGTACX_site7703],11.1 ± 0.56
16,TTTTTTCAAATTATTCGATATGTAAAAAAATAAAAT [GTGCAC_negctrl_site241],9.85 ± 0.11
17,TTTTTTTTTTTTGAGTGTACAAGATTGTTGTTCCAA [XGTACX_site6120],11 ± 0.88
18,TACATAAACATTTATACACACATTATAAATACATAT [CACACA_site4386],9.945 ± 0.035
19,ACAATTTTAAAATGAACACACATGTTTTTCTTACTT [CACACA_site1014],9.96 ± 0.13
20,ATTTTCTATTTTATTTGTACGTAATTTAATTTTTTT [XGTACX_site3609],11.4 ± 0.71
21,TTTTTTTTCTAAATTATATGAAAATATATGTTATGT [GTGCAC_negctrl_site85],9.65 ± 0.099
22,AAGTAATTTGTTGACACACACACACGCATACCTATA [CACACA_site7140],10.4 ± 0.23

row,Sequence,gcPBM binding intensity (ln)
1,TCCCAATTTCTATCCTGTACAGACATAAATATATAC [XGTACX_site5937],11 ± 0.51
2,ATAAAGATTAATAAAATAAAATTCCGCAAACATATA [CACACA_negctrl_site244],9.955 ± 0.064
3,TTTTGAAATTTTTGTGTTTTTCCTTTTTATTTTATA [CACACA_negctrl_site1740],9.82 ± 0.11
4,ATAAATCCATGTAACTGTACTTTTTTTTTTTTTTTT [XGTACX_site7373],11.6 ± 0.91
5,ACTTATGATTTATTTTGTACATATATACTATTCCTG [XGTACX_site5275],10.8 ± 0.36
6,GTTTTAAAACAAATATGTACACATAATATAGGAAAG [XGTACX_site1803],11.7 ± 0.82
7,ATTATATATATATATATATATATATATATATTATAT [CACACA_negctrl_site234],9.54 ± 0.26
8,AATGTAATATAAATATGTACATATAAACTATATATA [XGTACX_site6871],11.2 ± 0.8
9,ACAAATACTAACAACGCATGTAAGCCTACAATAAAT [TGCATGCA_site551],9.87 ± 0.042
10,GCTCCTTTTACCATCGCACACGATAAAAAAAAATAA [CACACA_site3255],10.5 ± 0.47
11,AAAGGGATAACACCAAAAAAAATAAAAATAAAAATA [GTGCAC_negctrl_site680],9.84 ± 0.028
12,CAAAAATAACGAGTCAAACACACATATATATATATA [CACACA_site2038],10.1 ± 0.35
13,TCAAGAATTTTAAAGAGTACATAAAACAATAATATA [XGTACX_site3923],11.4 ± 0.88
14,CATACATACATACATACACACATACATATGTATTTA [CACACA_site5384],10.5 ± 0.33
15,TATTTTATATTTCATTTGTTATTTTTCTTGGTTCTA [CACACA_negctrl_site33],9.75 ± 0.18
16,ATGCGTATACTAAGAACACACAAGTTACTTGGTGTT [CACACA_site1625],10.07 ± 0.028
17,ATTAATGATTTTTGTTGTACATTATTAATTTACATT [XGTACX_site544],11.1 ± 0.71
18,AGTTTCCATATGAGGTGTACATATATAATTTATTAT [XGTACX_site2369],11.6 ± 0.71
19,ACAAAATAAAGACACACACACAAACACAAAAAAATA [CACACA_site7568],10.4 ± 0.61
20,CAACACTTTCAAAAATGTACGTACAAATGTATTTTA [XGTACX_site6713],11.7 ± 0.76
21,TATGCACCCAGACACACACACACAACTAAAAAATAA [CACACA_site2567],10.5 ± 0.62
22,TTTGTAGATTTTGTAACACACACATATATATACATA [CACACA_site8757],10 ± 0.14
